Assay results as given in the supplement of paper PMC8728848.
The other results are listed elsewhere or left out.

Experiments:
Experiment in all cases: glycan array binding signal (z-score within array); higher = stronger binding
Conditions in all cases: glycan notation: IUPAC condensed, linker removed
[1] = biological target: Fuc(a1-2)Gal
Summary of the method: (§1)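 Arrays were curated from the Consortium for Functional Glycomics database, 3228 in total, and kept only where the protein sequence was available. Binding is expressed as a within-array Z-score. This score was averaged across arrays of the same protein sequence at different concentrations or buffers and across linkers, and negative values can be read as non-binding.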

[2] = biological target: Fuc(a1-2)Gal(b1-3)GalNAc
Summary of the method: as §1

[3] = biological target: Fuc(a1-2)Gal(b1-3)GalNAc(a1-3)[Fuc(a1-2)]Gal(b1-4)Glc
Summary of the method: as §1

[4] = biological target: Fuc(a1-2)Gal(b1-3)GalNAc(a1-3)[Fuc(a1-2)]Gal(b1-4)GlcNAc
Summary of the method: as §1

[5] = biological target: Fuc(a1-2)Gal(b1-3)GalNAc(b1-3)Gal
Summary of the method: as §1

[6] = biological target: Fuc(a1-2)Gal(b1-3)GalNAc(b1-3)Gal(a1-4)Gal(b1-4)Glc
Summary of the method: as §1

[7] = biological target: Fuc(a1-2)Gal(b1-3)GalNAc(b1-4)[Neu5Ac(a2-3)]Gal(b1-4)Glc
Summary of the method: as §1

[8] = biological target: Fuc(a1-2)Gal(b1-3)GlcNAc
Summary of the method: as §1

[9] = biological target: Fuc(a1-2)Gal(b1-3)GlcNAc(b1-2)Man(a1-3)[Fuc(a1-2)Gal(b1-3)GlcNAc(b1-2)Man(a1-6)]Man(b1-4)GlcNAc(b1-4)GlcNAc
Summary of the method: as §1

[10] = biological target: Fuc(a1-2)Gal(b1-3)GlcNAc(b1-2)Man(a1-3)[Fuc(a1-2)Gal(b1-3)GlcNAc(b1-2)Man(a1-6)]Man(b1-4)GlcNAc(b1-4)[Fuc(a1-6)]GlcNAc
Summary of the method: as §1

[11] = biological target: Fuc(a1-2)Gal(b1-3)GlcNAc(b1-3)Gal(b1-4)Glc
Summary of the method: as §1

[12] = biological target: Fuc(a1-2)Gal(b1-3)GlcNAc(b1-3)GalNAc
Summary of the method: as §1

[13] = biological target: Fuc(a1-2)Gal(b1-3)GlcNAc(b1-3)[Fuc(a1-2)Gal(b1-3)GlcNAc(b1-6)]GalNAc
Summary of the method: as §1

[14] = biological target: Fuc(a1-2)Gal(b1-3)GlcNAc(b1-3)[Gal(b1-4)GlcNAc(b1-6)]Gal(b1-4)Glc
Summary of the method: as §1

[15] = biological target: Fuc(a1-2)Gal(b1-3)GlcNAc(b1-3)[Neu5Ac(a2-6)Gal(b1-4)GlcNAc(b1-6)]Gal(b1-4)Glc
Summary of the method: as §1

[16] = biological target: Fuc(a1-2)Gal(b1-3)GlcNAc6S
Summary of the method: as §1

[17] = biological target: Fuc(a1-2)Gal(b1-3)[Fuc(a1-4)]GlcNAc
Summary of the method: as §1

[18] = biological target: Fuc(a1-2)Gal(b1-3)[Fuc(a1-4)]GlcNAc(b1-2)Man(a1-3)[Fuc(a1-2)Gal(b1-3)[Fuc(a1-4)]GlcNAc(b1-2)Man(a1-3)]Man(b1-4)GlcNAc(b1-4)GlcNAc
Summary of the method: as §1

[19] = biological target: Fuc(a1-2)Gal(b1-3)[Fuc(a1-4)]GlcNAc(b1-2)Man(a1-3)[Fuc(a1-2)Gal(b1-3)[Fuc(a1-4)]GlcNAc(b1-2)Man(a1-6)]Man(b1-4)GlcNAc(b1-4)[Fuc(a1-6)]GlcNAc(b1-4)[Fuc(a1-6)]GlcNAc
Summary of the method: as §1

[20] = biological target: Fuc(a1-2)Gal(b1-3)[Fuc(a1-4)]GlcNAc(b1-3)[Fuc(a1-3)[Gal(b1-4)]GlcNAc(b1-6)]Gal(b1-4)Glc
Summary of the method: as §1

[21] = biological target: Fuc(a1-2)Gal(b1-3)[Fuc(a1-4)]GlcNAc(b1-3)[Gal(b1-4)GlcNAc(b1-6)]Gal(b1-4)Glc
Summary of the method: as §1

[22] = biological target: Fuc(a1-2)Gal(b1-4)Fuc(a1-3)]GlcNAc(b1-2)Man(a1-3)[Fuc(a1-2)Gal(b1-4)[Fuc(a1-3)]GlcNAc(b1-2)Man(a1-6)]Man(b1-4)GlcNAc(b1-4)GlcNAc
Summary of the method: as §1

[23] = biological target: Fuc(a1-2)Gal(b1-4)Glc
Summary of the method: as §1

[24] = biological target: Fuc(a1-2)Gal(b1-4)Glc6S
Summary of the method: as §1

[25] = biological target: Fuc(a1-2)Gal(b1-4)GlcNAc
Summary of the method: as §1

[26] = biological target: Fuc(a1-2)Gal(b1-4)GlcNAc(b1-2)Man
Summary of the method: as §1

[27] = biological target: Fuc(a1-2)Gal(b1-4)GlcNAc(b1-2)Man(a1-3)[Fuc(a1-2)Gal(b1-4)GlcNAc(b1-2)Man(a1-6)]Man(b1-4)GlcNAc(b1-4)GlcNAc
Summary of the method: as §1

[28] = biological target: Fuc(a1-2)Gal(b1-4)GlcNAc(b1-2)Man(a1-3)[Fuc(a1-2)Gal(b1-4)GlcNAc(b1-2)Man(a1-6)]Man(b1-4)GlcNAc(b1-4)[Fuc(a1-6)]GlcNAc
Summary of the method: as §1

[29] = biological target: Fuc(a1-2)Gal(b1-4)GlcNAc(b1-2)[Fuc(a1-2)Gal(b1-4)GlcNAc(b1-4)]Man(a1-3)[Fuc(a1-2)Gal(b1-4)GlcNAc(b1-2)Man(a1-6)]Man(b1-4)GlcNAc(b1-4)GlcNAc
Summary of the method: as §1

[30] = biological target: Fuc(a1-2)Gal(b1-4)GlcNAc(b1-3)Gal(b1-4)GlcNAc
Summary of the method: as §1

B1: FliC (Pseudomonas aeruginosa), P72151 (protein)
chain: MALTVNTNIASLNTQRNLNASSNDLNTSLQRLTTGYRINSAKDDAAGLQISNRLSNQISGLNVATRNANDGISLAQTAEGALQQSTNILQRIRDLALQSANGSNSDADRAALQKEVAAQQAELTRISDTTTFGGRKLLDGSFGTTSFQVGSNAYETIDISLQNASASAIGSYQVGSNGAGTVASVAGTATASGIASGTVNLVGGGQVKNIAIAAGDSAKAIAEKMDGAIPNLSARARTVFTADVSGVTGGSLNFDVTVGSNTVSLAGVTSTQDLADQLNSNSSKLGITASINDKGVLTITSATGENVKFGAQTGTATAGQVAVKVQGSDGKFEAAAKNVVAAGTAATTTIVTGYVQLNSPTAYSVSGTGTQASQVFGNASAAQKSSVASVDISTADGAQNAIAVVDNALAAIDAQRADLGAVQNRFKNTIDNLTNISENATNARSRIKDTDFAAETAALSKNQVLQQAGTAILAQANQLPQAVLSLLR
glycan array binding signal (z-score) [1]: -0.212
glycan array binding signal (z-score) [2]: -0.137
glycan array binding signal (z-score) [3]: -0.172
glycan array binding signal (z-score) [4]: -0.049
glycan array binding signal (z-score) [5]: -0.022
glycan array binding signal (z-score) [6]: -0.201
glycan array binding signal (z-score) [7]: -0.034
glycan array binding signal (z-score) [8]: -0.166
glycan array binding signal (z-score) [9]: -0.133
glycan array binding signal (z-score) [10]: -0.147
glycan array binding signal (z-score) [11]: -0.154
glycan array binding signal (z-score) [12]: -0.187
glycan array binding signal (z-score) [13]: -0.15
glycan array binding signal (z-score) [14]: -0.067
glycan array binding signal (z-score) [15]: 2.82
glycan array binding signal (z-score) [16]: -0.18
glycan array binding signal (z-score) [17]: -0.214
glycan array binding signal (z-score) [18]: 0.056
glycan array binding signal (z-score) [19]: -0.208
glycan array binding signal (z-score) [20]: -0.205
glycan array binding signal (z-score) [21]: -0.212
glycan array binding signal (z-score) [22]: 0.104
glycan array binding signal (z-score) [23]: -0.017
glycan array binding signal (z-score) [24]: -0.226
glycan array binding signal (z-score) [25]: -0.184
glycan array binding signal (z-score) [26]: -0.172
glycan array binding signal (z-score) [27]: 0.42
glycan array binding signal (z-score) [28]: -0.125
glycan array binding signal (z-score) [29]: -0.117
glycan array binding signal (z-score) [30]: -0.11
